Source: a compilation of properties of binary mixtures (doi:10.1021/je7001804)
Some of these densities may be calculated back from excess volumes.

Assay: xn = mol fraction of the nth substance listed
Conditions: 101 kPa

CC[n+]1ccn(C)c1.O=S(=O)([O-])C(F)(F)F + O
mass density [kg/m3]
Conditions | 278.15 K | 288.15 K | 298.15 K | 308.15 K | 318.15 K | 328.15 K | 338.15 K
x1 = 0.0178 | 1065.4 | 1062.6 | 1058.9 | 1054.4 | – | 1043.7 | 1037.5
x2 = 0.0502 | 1398.1 | 1389.6 | 1381.2 | 1372.8 | 1364.4 | 1356.1 | –
x2 = 0.1058 | 1395.4 | 1386.9 | – | – | – | – | 1345.2
x2 = 0.1504 | 1393 | – | 1376 | 1367.6 | 1359.3 | – | 1342.7
x2 = 0.249 | – | 1378.8 | 1370.4 | 1362 | 1353.6 | 1345.2 | 1337
x2 = 0.3004 | 1383.9 | 1375.4 | 1366.9 | 1358.5 | – | – | –
x2 = 0.3524 | – | 1371.4 | 1362.9 | 1354.5 | 1346 | – | 1329.3
x2 = 0.3961 | – | 1367.5 | 1359 | – | 1342.1 | 1333.7 | 1325.3
x2 = 0.4505 | 1370.6 | 1362.1 | – | 1345.1 | 1336.7 | 1328.2 | 1319.8
x2 = 0.5024 | 1364.7 | – | 1347.7 | – | 1330.7 | 1322.2 | 1313.8
x2 = 0.5502 | 1358.2 | 1349.6 | 1341.1 | 1332.6 | 1324.1 | – | –
x2 = 0.6 | – | 1341.7 | 1333.2 | 1324.7 | – | 1307.6 | 1299
x2 = 0.6502 | 1340.3 | 1331.8 | 1323.4 | 1314.8 | 1306.3 | 1297.7 | 1289.1
x2 = 0.702 | 1327.9 | 1319.5 | 1311 | – | – | 1285.3 | 1276.7
x2 = 0.7493 | 1312.9 | 1304.6 | 1296.2 | – | 1279.2 | 1270.6 | 1261.9
x2 = 0.7998 | – | – | 1275.8 | 1267.5 | 1259.1 | 1250.5 | 1241.8
x2 = 0.8499 | 1262.9 | 1255.2 | 1247.3 | 1239.2 | 1231 | 1222.6 | –
x2 = 0.8996 | – | 1212 | – | 1197.2 | – | 1181.5 | 1173.2
x2 = 0.9498 | – | 1141 | 1135.2 | 1129 | 1122.4 | 1115.2 | 1107.9

CC[n+]1ccn(C)c1.O=S(=O)([O-])C(F)(F)F + CCO
mass density [kg/m3]
Conditions | 278.15 K | 288.15 K | 298.15 K | 308.15 K | 318.15 K | 328.15 K
x2 = 0.0508 | 1391.4 | 1382.9 | 1374.4 | 1366 | 1357.7 | 1349.4
x2 = 0.0983 | – | – | 1365 | 1356.6 | – | 1340
x2 = 0.1483 | 1371.2 | 1362.7 | – | 1345.8 | 1337.4 | 1329.1
x2 = 0.198 | – | 1351.2 | – | – | – | –
x2 = 0.3072 | 1331.1 | – | – | – | 1297.1 | –
x2 = 0.4068 | 1299.4 | 1290.8 | 1282.3 | 1273.8 | 1265.3 | 1256.9
x2 = 0.4985 | 1264.2 | 1255.5 | 1247 | 1238.4 | – | –
x2 = 0.5999 | 1216.2 | – | 1198.9 | 1190.3 | – | 1173.3
x2 = 0.6991 | – | 1147.8 | 1139.1 | 1130.5 | 1121.9 | 1113.3
x2 = 0.8001 | – | – | 1058.5 | 1049.8 | 1041.1 | 1032.4
x2 = 0.8497 | 1025.8 | 1017.1 | 1008.5 | – | 991.1 | 982.3
x2 = 0.9 | 965.6 | 957 | – | – | 930.9 | –
x2 = 0.9501 | 892.8 | 884.3 | 875.7 | 867 | 858.3 | 849.4

CC[n+]1ccn(C)c1.O=S(=O)([O-])C(F)(F)F + CCCO
mass density [kg/m3]
Conditions | 278.15 K | 288.15 K | 298.15 K | 308.15 K | 318.15 K | 328.15 K | 338.15 K
x2 = 0.049 | 1389.1 | 1380.6 | 1372.2 | 1363.8 | – | 1347.2 | 1339
x2 = 0.1095 | 1373.9 | 1365.4 | 1356.9 | – | 1340.2 | – | 1323.7
x2 = 0.1497 | 1363.1 | 1354.6 | 1346.1 | 1337.7 | 1329.4 | – | 1312.9
x2 = 0.2004 | 1348.6 | 1340.1 | – | – | 1314.9 | 1306.7 | 1298.5
x2 = 0.3 | 1317 | 1308.5 | 1300 | 1291.6 | 1283.3 | 1275 | 1266.8
x2 = 0.3993 | – | 1271.8 | 1263.4 | 1255 | 1246.7 | 1238.4 | 1230.2
x2 = 0.499 | 1237.2 | 1228.7 | 1220.2 | 1211.8 | 1203.5 | 1195.2 | 1186.9
x2 = 0.6007 | 1184.6 | 1176.2 | 1167.7 | 1159.3 | – | 1142.6 | 1134.3
x2 = 0.6998 | 1122.4 | – | 1105.5 | – | 1088.8 | 1080.4 | 1072
x2 = 0.7996 | 1044.8 | – | 1028.1 | 1019.8 | 1011.4 | 1002.9 | 994.5
x2 = 0.8496 | 998.6 | 990.4 | 982.1 | 973.8 | 965.4 | 957 | 948.5
x2 = 0.8999 | 946.2 | 938 | 929.8 | 921.6 | 913.2 | 904.8 | –
x2 = 0.9499 | 885.8 | 877.8 | 869.7 | – | – | – | 836.2

CC[n+]1ccn(C)c1.O=S(=O)([O-])C(F)(F)F + CO
mass density [kg/m3]
Conditions | 278.15 K | 288.15 K | 298.15 K | 308.15 K | 318.15 K
x2 = 0.0511 | 1394.5 | 1385.9 | 1377.5 | 1369 | 1360.7
x2 = 0.1016 | 1387.5 | 1379 | – | 1362 | 1353.7
x2 = 0.1557 | 1379.2 | 1370.7 | – | 1353.7 | 1345.3
x2 = 0.2035 | – | – | 1354.4 | 1345.9 | 1337.5
x2 = 0.3006 | 1353.2 | – | 1335.9 | 1327.4 | 1318.9
x2 = 0.3988 | 1330.4 | – | 1313 | 1304.4 | 1295.9
x2 = 0.5074 | 1298.4 | – | – | 1272.2 | 1263.5
x2 = 0.5993 | 1262.7 | 1253.9 | 1245.1 | 1236.3 | 1227.6
x2 = 0.6995 | 1210.8 | 1201.8 | 1192.9 | – | 1175.2
x2 = 0.8001 | 1135.3 | 1126.2 | 1117.2 | – | 1099.3
x2 = 0.8498 | 1084.1 | 1075 | 1065.9 | 1056.8 | 1047.7
x2 = 0.8995 | 1018.2 | 1009 | 999.8 | 990.6 | 981.4
x2 = 0.9495 | – | 921.1 | – | – | 893.3
